# From the RNAGym collection of RNA variant scans (doi:10.7554/elife.90254)
# Read counts are not given, so values of variants with three or more changes are uncertain.
# B1: LINE1-mini (parent)
# chain: GGCAGAGCUCAACACAGCGUGGCAAAGUGGCUGUGGCUAGACUGCC
# Variants of: B1
# Test: self-cleavage, relative activity (ratio to wild type); higher = more cleavage; in vitro, sequencing; the parent is a self-cleaving ribozyme
row,Variant,self-cleavage
1,C3U A12U U28A,0.15
2,C3G G21A A24G G35U,0.09
3,C3G G21C C42A,0.07
4,C3U C8A C18A,0.32
5,C3G U9C G29A U43A,0.01
6,C3G U34G U43A,0.03
7,C3G U9C C13A G17U U28C,0.02
8,C3G G17C G27A,0.05
9,C3U A12C G30U,0.02
10,C3G G17U G36U,0.47
11,C3G G22C A26U,0.16
12,C3U A4C G7U A16U,1.23
13,C3U A11C C15U G19C G22U G36A C42A G44U C45A,0
14,C3G G30U U43C,0.01
15,C3U A25U G35U,0.04
16,C3U A4C A26G G29U,0.01
17,C3G G17A C23A,0.39
18,C3U A6U C8A G29U G36A,1.03
19,C3U A14U A26C U34G,0.76
20,C3G G44A C46U,0.04
21,C3U A4U G17U A41U,0.02

row,Variant,self-cleavage
1,C3G U34A U38A,0.05
2,C3U A12U C18A G19C U28G C37U,0.01
3,C3U A4G G19A,0.06
4,C3G G21U G36U C46A,1.88
5,C3G G30U C46U,0.06
6,C3U A4C U34G,0.02
7,C3U A4G G7U C8U C13A A26C G35U,0.33
8,C3U A14U A26G U34G,0.7
9,C3G U9A A16U G29U C37U,0.06
10,C3U A4G A11C G35U,0.01
11,C3U A12U A25U,0.23
12,C3U A12G C13G C15U U34A C42A C45A,0.01
13,C3G G35A U38A,0.19
14,C3U A24U U32G C37A C42U,0.08
15,C3G G17U U34G G44A,0.02
16,C3U A4U U28A G30A C37U,0.37
17,C3G U9A G22U A26U U34C,0.1
18,C3U A12U C13A G17C,0.08
19,C3U A6U A16G C42A,0.21
20,C3U A4G A6C A11C A39C,0.01
21,C3G G21A C23G A25C C46A,0.07

row,Variant,self-cleavage
1,C3G G21A C23U C37G,0.01
2,C3U A6U C10A G35A A41G,0.06
3,C3U A4C C10U A14G,0.06
4,C3U A12G C23A C45A,0.07
5,C3G G19U A24U,0.1
6,C3G U32G G35U,0.11
7,C3U A4G A11G U38A,0.03
8,C3U A6U A14C C15A A16C A25U,0.04
9,C3U C8A C42U,0.16
10,C3U A12G G22A A25U,0.05
11,C3G U28A G33U,0.07
12,C3G G27A U32A A39U,0.05
13,C3G G22C C37G C42A,0.04
14,C3U A11C G35A,0.02
15,C3U A16G G22C C46G,0.03
16,C3G G29A G36U C37A A41U C42A C45A,0.03
17,C3G G17A U38C,0.05
18,C3U A25C C46A,0.26
19,C3G U32A G33C,0.36
20,C3G U32C U43A,0.11
21,C3U C8A A16U A24C U28G,0.75

row,Variant,self-cleavage
1,C3G G27A A41U,0.3
2,C3U A12U G22U,0.17
3,C3U A4U C13G A16G G35A G44A,0.04
4,C3G U20A C37A A41G,0.05
5,C3G G19A C37U,0.32
6,C3G U20G U38C,0.08
7,C3U A14G G21A C23A U38C,0.26
8,C3G G22A C31G U43G,0.06
9,C3U A11G C23A U34C,0.01
10,C3G G35A G36U,0.96
11,C3U A16U A24G,0.01
12,C3U A14C C15A G33A C37A,0.04
13,C3G G22U G36C,0.54
14,C3U A6G C8U C46A,0.08
15,C3G G19C C45G,0.09
16,C3U A14G G33U,0.06
17,C3U A25G U34A,0.01
18,C3U A4U G5C A11U A12C C13A U28G U34C A41G,0.03
19,C3U A4U G5A G7C G27U G33U,0.06
20,C3U A11C G29A G35A C37G,0.01
